Measurements: the supplement of paper PMC3334620
Over roughly 33,000 sequences, “E-score (-0.5 to 0.5)” has its median near -0.035; the highest 2% begin near 0.35. The list shows a part of the results.

molecular target: T1, Pdr3 (UniProt P33200); assay: PBM E-score (8-mer binding enrichment) (E-score (-0.5 to 0.5)); higher = stronger / more preferred TF binding; most listed sequences are background and not binding sites; conditions: protein concentration: 200 nM; construct: GST-full length
T1 sequence: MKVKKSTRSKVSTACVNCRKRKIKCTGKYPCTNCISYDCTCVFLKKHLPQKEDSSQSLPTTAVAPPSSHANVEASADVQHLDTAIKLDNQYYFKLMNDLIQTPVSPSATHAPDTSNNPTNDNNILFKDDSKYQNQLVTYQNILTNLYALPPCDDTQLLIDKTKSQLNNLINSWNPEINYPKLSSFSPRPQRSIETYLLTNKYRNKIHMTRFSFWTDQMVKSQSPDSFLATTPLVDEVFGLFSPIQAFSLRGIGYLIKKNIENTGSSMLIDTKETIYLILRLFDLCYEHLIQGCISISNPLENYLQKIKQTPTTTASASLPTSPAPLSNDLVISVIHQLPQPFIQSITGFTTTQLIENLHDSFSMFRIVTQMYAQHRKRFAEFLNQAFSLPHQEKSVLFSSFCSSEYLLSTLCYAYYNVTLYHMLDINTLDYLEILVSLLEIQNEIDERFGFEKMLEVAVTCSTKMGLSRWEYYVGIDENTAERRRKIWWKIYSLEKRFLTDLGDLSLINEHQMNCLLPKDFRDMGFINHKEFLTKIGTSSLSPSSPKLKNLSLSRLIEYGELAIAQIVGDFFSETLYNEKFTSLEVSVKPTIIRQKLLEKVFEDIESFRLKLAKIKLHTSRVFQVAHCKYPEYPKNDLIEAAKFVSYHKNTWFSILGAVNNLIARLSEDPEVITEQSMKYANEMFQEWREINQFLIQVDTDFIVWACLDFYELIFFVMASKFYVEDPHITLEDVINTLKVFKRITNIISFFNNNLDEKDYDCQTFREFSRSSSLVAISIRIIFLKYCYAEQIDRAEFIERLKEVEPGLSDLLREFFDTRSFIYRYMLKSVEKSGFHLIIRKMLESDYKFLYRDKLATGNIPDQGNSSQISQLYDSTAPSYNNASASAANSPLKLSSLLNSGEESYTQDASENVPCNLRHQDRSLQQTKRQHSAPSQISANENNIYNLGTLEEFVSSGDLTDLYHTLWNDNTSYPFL
In short: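 Universal all-10-mer Agilent arrays, fresh or stripped once, were converted to double-stranded form by primer extension. GST-tagged yeast transcription factors from PURExpress in vitro transcription/translation, full-length or DNA-binding domain only, were applied at about 100-200 nM and detected with fluorescent anti-GST. After masliner normalisation, the Universal PBM Analysis Suite scored each ungapped eight-base word together with its reverse complement by E-score.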

| Sequence | PBM E-score |
| --- | --- |
| AGGAGCAT | -0.137 |
| AGTTAACC | 0.0562 |
| CGAGACGC | 0.0374 |
| AATACATT | -0.0492 |
| CGTGACTA | -0.00109 |
| CTAATCGA | 0.0366 |
| AATACCGA | 0.0748 |
| ACTCTGAA | 0.0584 |
| AGATAAGA | 0.0269 |
| CTTACAGA | -0.182 |
| AGCGCAGC | -0.099 |
| CAATGCAG | -0.0477 |
| CCCGATGA | 0.269 |
| TATGGCGA | -0.0751 |
| ATAGAGAA | -0.113 |
| CAGTCAAA | -0.0759 |
| ACAGGCAC | -0.123 |
| CCAAATGC | -0.0689 |
| AGTACTAT | -0.0162 |
| ATTACTCA | -0.0474 |
| ACTATGCC | 0.104 |
| CCCTGCGG | 0.0874 |
| AACACTCT | 0.0204 |
| ACAATGTC | 0.0131 |
| AAAAGTGG | 0.0759 |

| Sequence | PBM E-score |
| --- | --- |
| ATCCGCCG | 0.387 |
| AGTTGTTA | 0.0458 |
| AAGCGTGT | -0.256 |
| AGCCAGTG | -0.142 |
| TCGGGTCA | 0.312 |
| CGCTATAA | -0.0802 |
| CCGTATCG | 0.0411 |
| CCGCGCAG | 0.278 |
| GGGCCACA | -0.068 |
| ATTCGCGC | 0.113 |
| CCGTCGTC | 0.128 |
| CAGACGAG | -0.165 |
| CGCTTAAC | 0.0421 |
| AGAAGCCC | -0.00976 |
| CATAGGTC | -0.0905 |
| GGGCCCCA | 0.092 |
| CAAGTACG | -0.0802 |
| ATCCTGCA | -0.139 |
| AGTCCTCA | -0.023 |
| CGCAGACG | 0.0826 |
| GACCGATC | 0.134 |
| ATTGAATG | 0.0761 |
| AAGGTCCA | 0.00467 |
| GTGTTGAA | -0.157 |
| AAAGCTCT | -0.228 |

| Sequence | PBM E-score |
| --- | --- |
| AACCTATC | -0.0357 |
| CTTGGCTC | -0.302 |
| AGCGGAGG | 0.00881 |
| GGCGTTAC | -0.179 |
| ACCTTAGG | -0.184 |
| ACGTAGGC | -0.135 |
| AGATACCG | 0.115 |
| CTTACATA | -0.0709 |
| CAATCGTC | -0.00975 |
| ACGAAGGG | -0.272 |
| CCGTCACA | 0.0352 |
| TACTTTCA | -0.0314 |
| CCCTACTC | 0.126 |
| AATCTACA | 0.0119 |
| AGTGACAC | -0.0319 |
| CCCCCTTA | -0.229 |
| AGCTTGAC | -0.0266 |
| GAATCACA | 0.193 |
| CAACTAAG | -0.0293 |
| GCTGCGCC | -0.125 |
| TTACGTAA | -0.395 |
| AGCCCTTC | -0.17 |
| CAGCTGCA | -0.0612 |
| CAAGTCTC | -0.206 |
| ACGTCCAC | -0.174 |

| Sequence | PBM E-score |
| --- | --- |
| GAACCAAA | -0.00151 |
| AGCATAAA | -0.0413 |
| AAAGGTAT | 0.0857 |
| AGCAGTCG | -0.0929 |
| ACCGAAAT | 0.165 |
| AGCCACCC | -0.0168 |
| AGCCGTAC | 0.0182 |
| CGAGCATC | 0.0131 |
| AGAACGAA | -0.0223 |
| AGCCGACT | -0.0192 |
| TCTGGGCA | 0.0661 |
| ACAAACAG | -0.017 |
| GATAAGAA | 0.0958 |
| TGAAGACA | -0.0366 |
| CGCGCCGA | 0.162 |
| CCCGGCCA | 0.242 |
| AGAAGCAC | -0.185 |
| ATCTAACG | -0.0549 |
| GGTGCTCA | -0.0879 |
| AATCTAGA | -0.233 |
| CGGACCGC | 0.344 |
| ACCTAAGC | -0.00804 |
| CGGATACC | 0.31 |
| AGATCAGA | -0.172 |
| CGTTCTCC | 0.103 |

| Sequence | PBM E-score |
| --- | --- |
| AGTAGGAC | -0.134 |
| TGCCACCA | -0.256 |
| ACGTTAAG | -0.18 |
| ACTGATAG | -0.194 |
| ACCCTTGA | -0.043 |
| ACAATGCG | 0.0246 |
| ACAGTGTA | -0.0466 |
| GAGTTGCC | 0.121 |
| CCTATGAG | -0.182 |
| AAGACGTC | -0.151 |
| AGATGACG | -0.166 |
| AGAGCGAC | -0.135 |
| AAAAACGC | 0.0456 |
| AACTGTCA | -0.0445 |
| ACCTGCAG | -0.284 |
| AGTTGCGA | -0.162 |
| CATCTCGC | -0.0549 |
| AGCTAGTC | -0.0629 |
| CCCTCGAG | -0.166 |
| TCACGTCA | -0.0775 |
| TTTGCAAA | -0.132 |
| GTCTAGCA | -0.165 |
| AGTGGGGC | -0.132 |
| GAAGTGCA | 0.00237 |
| AAGATAAT | 0.025 |

| Sequence | PBM E-score |
| --- | --- |
| GCGGTCAA | 0.125 |
| CCGCGGTC | 0.432 |
| GCCCTAGC | -0.199 |
| CATATTTA | 0.0589 |
| TAAAGTGA | -0.0775 |
| ACGGTAAA | 0.0442 |
| ACTCCAAG | -0.149 |
| TATACAAA | -0.107 |
| GTCGACAA | -0.014 |
| CCAATGAG | -0.174 |
| AGCTGTCG | -0.163 |
| ACAAGTTC | -0.0179 |
| ACCGAGAG | 0.109 |
| AACGGACC | 0.303 |
| CCGAAGAG | 0.129 |
| GGGCGTGA | 0.055 |
| GCCGCTTA | 0.114 |
| AGCCAGAT | -0.0083 |
| GGAACTAA | 0.296 |
| AATTACGC | -0.225 |
| CTGACGGC | 0.148 |
| ATCACAGA | -0.118 |
| AGGCAAAA | -0.00637 |
| CGCTCGCA | 0.161 |
| AAAACAGA | -0.0591 |

| Sequence | PBM E-score |
| --- | --- |
| ACTCTGTC | -0.158 |
| GCCACGAA | -0.152 |
| ATACTTTC | 0.0491 |
| CTTGATAA | -0.0707 |
| GTCAGCAC | -0.127 |
| TAATCCAA | -0.115 |
| CCCCAAAC | -0.0986 |
| CCCTCTCA | -0.358 |
| ACTCGAAG | -0.183 |
| CCCGAGTA | 0.162 |
| ACCCCCAT | -0.146 |
| ATATGTCC | 0.138 |
| CTTCCTAA | -0.211 |
| CCGCACTA | 0.241 |
| CCGAACCC | 0.136 |
| CGTGGGAG | -0.0135 |
| ACTAAGCA | -0.375 |
| CCTGCTGC | 0.00649 |
| GAAGTGTC | -0.0297 |
| ACTGAGTG | -0.145 |
| AGGTTTCA | 0.0193 |
| TACTATCA | 0.0314 |
